In the BET-seq Pho4 binding data (Le et al. 2018):
Some of the results follow. The energies were worked out here from pooled read counts, against the library average; single values are noisy.

molecular target: T1, Pho4 (S. cerevisiae) (UniProt P07270); test: relative binding free energy (BET-seq); higher = weaker binding; conditions: reference: library average
T1 sequence: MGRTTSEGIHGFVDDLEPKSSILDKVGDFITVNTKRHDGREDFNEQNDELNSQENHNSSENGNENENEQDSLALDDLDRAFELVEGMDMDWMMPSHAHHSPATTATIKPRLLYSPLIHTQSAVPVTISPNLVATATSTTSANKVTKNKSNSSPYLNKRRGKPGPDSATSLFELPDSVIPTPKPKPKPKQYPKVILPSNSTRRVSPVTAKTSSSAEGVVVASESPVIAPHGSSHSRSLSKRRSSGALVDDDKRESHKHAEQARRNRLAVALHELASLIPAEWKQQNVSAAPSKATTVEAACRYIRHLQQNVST

Sequence | relative binding free energy
TGTATCACGTGAAGTG | 0.29 kcal/mol
GGGTGCACGTGGAAGT | 0.14 kcal/mol
CTTAGCACGTGATGGG | 0.21 kcal/mol
ATTTACACGTGGGTAA | -0.04 kcal/mol
TGGTACACGTGTTGAG | 0.09 kcal/mol
GAATGCACGTGCGGTG | -0.01 kcal/mol
GCGTGCACGTGTATGG | -0.04 kcal/mol
AGGGTCACGTGCTGGG | 0.03 kcal/mol
GTTTTCACGTGAGACT | 0.45 kcal/mol
TCTTGCACGTGTATGT | 0.05 kcal/mol
TTGCTCACGTGGTGCG | 0.06 kcal/mol
ATTGTCACGTGGATGC | -0.07 kcal/mol
ATGGTCACGTGTGCAT | 0.12 kcal/mol
TTGGTCACGTGTTACA | 0.01 kcal/mol
TTACTCACGTGTTATA | 0.07 kcal/mol
TCTGCCACGTGGTGGG | -0.29 kcal/mol
TGTGTCACGTGGGATC | 0.04 kcal/mol
GGTGACACGTGCGGTT | 0.15 kcal/mol
GGTTACACGTGTGACG | 0.09 kcal/mol
GTGGTCACGTGTTGAG | 0.13 kcal/mol
TGATTCACGTGTGTTG | 0.21 kcal/mol
TTGGGCACGTGAAATT | 0.12 kcal/mol
ATCGGCACGTGGGGTC | -0.34 kcal/mol
CATGGCACGTGGGGGA | -0.24 kcal/mol
TGTTTCACGTGTTATC | 0.18 kcal/mol
TGTGCCACGTGATGAT | 0.03 kcal/mol

Sequence | relative binding free energy
GTTTTCACGTGTCAGT | 0.46 kcal/mol
GCAAGCACGTGGGGCG | -0.3 kcal/mol
AGTGTCACGTGTAGGT | 0.09 kcal/mol
GATATCACGTGGGGTC | 0.04 kcal/mol
CCTGTCACGTGGGGGA | -0.01 kcal/mol
TGTAGCACGTGGTGCA | -0.12 kcal/mol
GGAAGCACGTGGTAGA | -0.07 kcal/mol
AAGGGCACGTGGCTAT | -0.18 kcal/mol
GGTAGCACGTGTCAGG | 0.01 kcal/mol
TGTGTCACGTGAAGGG | 0.25 kcal/mol
GAGTCCACGTGTGGTG | 0.17 kcal/mol
CGGTGCACGTGGAGGT | 0.07 kcal/mol
TGTAACACGTGGGGCC | -0.13 kcal/mol
GTTGTCACGTGTCCGG | 0.24 kcal/mol
CTGTTCACGTGTGTTA | 0.4 kcal/mol
GGTGACACGTGCTGGC | 0.05 kcal/mol
GGCATCACGTGTATTT | 0.24 kcal/mol
TAAGGCACGTGGCGGA | -0.27 kcal/mol
GGGTTCACGTGCATAA | 0.34 kcal/mol
TCTGGCACGTGAGTTT | 0.01 kcal/mol
GGGTTCACGTGTTAAT | 0.33 kcal/mol
TAATACACGTGGGGGC | 0.06 kcal/mol
CACTGCACGTGGGGGA | -0.1 kcal/mol
GAGACCACGTGTGTGG | 0.13 kcal/mol
GAGATCACGTGCGGGG | -0.08 kcal/mol
AGTTTCACGTGTGGGT | 0.22 kcal/mol

Sequence | relative binding free energy
GGGTCCACGTGCATGT | -0.04 kcal/mol
TTGAGCACGTGGTGCG | -0.08 kcal/mol
CGGGACACGTGAGGTG | 0.14 kcal/mol
TTGAGCACGTGGGAGT | -0.08 kcal/mol
CAGTTCACGTGATTGT | 0.34 kcal/mol
AATTTCACGTGGATCG | 0.39 kcal/mol
TCTGGCACGTGAGGAA | 0.15 kcal/mol
TTTCGCACGTGGTTAT | -0.18 kcal/mol
CGGGTCACGTGAGTGG | 0.18 kcal/mol
GTAACCACGTGTGTAT | 0.06 kcal/mol
GTAGTCACGTGGCCGT | 0.01 kcal/mol
TAATCCACGTGTGGTA | 0.13 kcal/mol
GGCTACACGTGGATGG | 0.11 kcal/mol
TTTTGCACGTGGCAGT | -0.01 kcal/mol
GTTGACACGTGATGGT | 0.24 kcal/mol
AGTTTCACGTGGAAGT | 0.2 kcal/mol
TGGAACACGTGGGGTA | -0.04 kcal/mol
GTCGTCACGTGTTGGT | 0.16 kcal/mol
TAAATCACGTGGTGTT | 0.13 kcal/mol
AGGTGCACGTGGGTAA | -0.18 kcal/mol
TGAGTCACGTGATATA | 0.08 kcal/mol
GCGTGCACGTGGGATT | -0.12 kcal/mol
AGGATCACGTGGGCTA | 0.09 kcal/mol
AGTAACACGTGCTTGG | -0.06 kcal/mol
TTGGGCACGTGTGCCA | -0.1 kcal/mol
GGTAGCACGTGTAGGC | -0.11 kcal/mol

Sequence | relative binding free energy
TCTTTCACGTGTCTGG | 0.38 kcal/mol
GGCTTCACGTGGTAGT | 0.25 kcal/mol
TGGATCACGTGCACTG | 0.33 kcal/mol
AGTCTCACGTGTTTTG | 0.17 kcal/mol
GTAGCCACGTGTCGGG | 0.02 kcal/mol
ATCGTCACGTGGTTGT | 0.08 kcal/mol
GGGGCCACGTGGTAGG | -0.12 kcal/mol
AAATTCACGTGTGTTC | 0.2 kcal/mol
AATTGCACGTGAGAAG | 0.22 kcal/mol
TATTGCACGTGAGGCT | 0.1 kcal/mol
AGTAGCACGTGTTTGA | -0.12 kcal/mol
GATTGCACGTGTACGT | 0.07 kcal/mol
TGTTTCACGTGATATG | 0.2 kcal/mol
GTATTCACGTGTGCTT | 0.24 kcal/mol
TGTTCCACGTGCTTTG | -0.02 kcal/mol
GGTGTCACGTGGGGTA | -0.04 kcal/mol
ATTGACACGTGGTGGT | -0.03 kcal/mol
CTAGGCACGTGGCGGC | -0.14 kcal/mol
TTGTACACGTGTCTAT | 0.1 kcal/mol
AGACTCACGTGGTTAG | 0.19 kcal/mol
TTTTACACGTGGTAGA | 0.08 kcal/mol
AAGATCACGTGATGCG | 0.33 kcal/mol
AAGGTCACGTGGGTTT | 0.02 kcal/mol
TGTTTCACGTGTTCGG | 0.29 kcal/mol
AGTTACACGTGAGGGA | 0.11 kcal/mol
AGGTGCACGTGCATCG | 0.03 kcal/mol

Sequence | relative binding free energy
AGTTACACGTGGCTGT | -0.08 kcal/mol
AAGTGCACGTGTGTTC | 0.07 kcal/mol
AGGTGCACGTGGAAGT | 0.01 kcal/mol
TCCAGCACGTGTTGTG | -0.11 kcal/mol
TGCTGCACGTGGTGCT | 0 kcal/mol
GGACGCACGTGGTAGT | -0.14 kcal/mol
GGCGTCACGTGTTAGG | 0.13 kcal/mol
AAGGTCACGTGTCGTT | 0.11 kcal/mol
TGCGACACGTGAGTAT | 0.24 kcal/mol
AGGCGCACGTGTGGGC | -0.11 kcal/mol
AGTTTCACGTGGGTAC | 0.13 kcal/mol
GTGTGCACGTGTAGGC | -0.02 kcal/mol
AGATCCACGTGTGTTG | 0.05 kcal/mol
TGAGGCACGTGGCGCA | -0.18 kcal/mol
TTGATCACGTGAAATG | 0.3 kcal/mol
GTTAGCACGTGGCAGG | -0.1 kcal/mol
ATGGTCACGTGTGCGG | 0.07 kcal/mol
AGTAGCACGTGAGGAG | 0.21 kcal/mol
TCTATCACGTGGGGCG | -0.01 kcal/mol
TTAATCACGTGATGCG | 0.08 kcal/mol
GTAGTCACGTGTACGG | 0.11 kcal/mol
GCCGTCACGTGGGTAG | -0.1 kcal/mol
TGGCTCACGTGAAGGT | 0.27 kcal/mol
GGATTCACGTGAGCCG | 0.49 kcal/mol
ATGGACACGTGTCGTG | -0.03 kcal/mol
TTTGCCACGTGTTCAT | 0.02 kcal/mol

Sequence | relative binding free energy
TTGTGCACGTGGGCAA | -0.06 kcal/mol
AGGAGCACGTGTAATT | 0.12 kcal/mol
GTGATCACGTGGTTCG | 0.15 kcal/mol
ATACTCACGTGGAGGG | 0.02 kcal/mol
AAAGGCACGTGTGCTG | -0.02 kcal/mol
GTCTGCACGTGACGGG | 0.12 kcal/mol
TTTGACACGTGTGTGG | 0.04 kcal/mol
AACTTCACGTGATGGT | 0.33 kcal/mol
GGGGGCACGTGTTAAT | -0.02 kcal/mol
TTTGTCACGTGTCAGC | 0.08 kcal/mol
GTTGGCACGTGCGAGT | 0.03 kcal/mol
AGTATCACGTGCTGTG | 0.16 kcal/mol
AGTATCACGTGCGGGT | 0.17 kcal/mol
CATTGCACGTGGCTTT | 0.05 kcal/mol
GATAACACGTGAGAGT | 0.39 kcal/mol
ACTGGCACGTGTGTAA | -0.06 kcal/mol
CATTGCACGTGTGGCG | 0.1 kcal/mol
AATATCACGTGTATGC | 0.16 kcal/mol
TTTTTCACGTGCGCGC | 0.33 kcal/mol
TGTGTCACGTGTCGGG | 0.18 kcal/mol
GGGGTCACGTGTCTTT | 0.36 kcal/mol
TGGCACACGTGTGTTA | 0.02 kcal/mol
GGGTTCACGTGGGAGC | 0.3 kcal/mol
GTTGTCACGTGTACTA | 0.14 kcal/mol
TATGCCACGTGTAGTT | -0.01 kcal/mol
TTTCGCACGTGAGCGT | 0.17 kcal/mol

Sequence | relative binding free energy
ACGTGCACGTGGGAGA | 0.01 kcal/mol
GTATTCACGTGGGCGT | 0.08 kcal/mol
GTTTACACGTGAGTCA | 0.32 kcal/mol
TACAGCACGTGGGAGG | -0.21 kcal/mol
ATGTTCACGTGCTAAG | 0.34 kcal/mol
TGGCGCACGTGAGCGG | 0 kcal/mol
ATGTTCACGTGAATGG | 0.4 kcal/mol
TTTTACACGTGCATGT | 0.11 kcal/mol
AAGTGCACGTGAACGG | 0.15 kcal/mol
TAGGACACGTGATTAG | -0.01 kcal/mol
GAGTACACGTGAGAGG | 0.31 kcal/mol
TTATACACGTGGATTG | 0.05 kcal/mol
CTAAGCACGTGGTGGA | -0.16 kcal/mol
TGTGGCACGTGGGGAG | -0.13 kcal/mol
TAGTTCACGTGCAGGT | 0.3 kcal/mol
TGGGGCACGTGTGGGA | 0 kcal/mol
AGTGACACGTGTAGAG | -0.03 kcal/mol
GTTCGCACGTGGATGG | -0.01 kcal/mol
AGTTACACGTGTCTGC | 0.35 kcal/mol
TAAAACACGTGTGGAT | 0.07 kcal/mol
TATGACACGTGTATTT | 0.15 kcal/mol
AGGTTCACGTGGAGAC | 0.31 kcal/mol
GTCTGCACGTGTTGAA | 0.2 kcal/mol
AAATTCACGTGTGTGG | 0.2 kcal/mol
TGTCGCACGTGAGAGT | 0.15 kcal/mol
CGGGTCACGTGGGGCA | -0.11 kcal/mol

Sequence | relative binding free energy
AGGCGCACGTGGTGTT | -0.24 kcal/mol
TCGTTCACGTGGGAAA | 0.25 kcal/mol
TTATTCACGTGGCATT | -0.04 kcal/mol
AGAATCACGTGTTGAG | 0.22 kcal/mol
GGTCTCACGTGTTGGA | 0.31 kcal/mol
GGGTGCACGTGTAAGG | 0.18 kcal/mol
ACGTGCACGTGTGTTC | 0.16 kcal/mol
TGTCGCACGTGTTTTT | -0.02 kcal/mol
AGGTTCACGTGGGGGG | 0.16 kcal/mol
TGTTACACGTGCTTAG | -0.02 kcal/mol
GGGAGCACGTGCTTTG | -0.06 kcal/mol
GTTCCCACGTGGTGTG | -0.1 kcal/mol
TGGGACACGTGCGTAT | -0.03 kcal/mol
TAGTTCACGTGTGTTC | 0.3 kcal/mol
GTTTTCACGTGCGGCG | 0.26 kcal/mol
GGTGGCACGTGGATTA | 0.03 kcal/mol
TAAAGCACGTGTGTGG | -0.15 kcal/mol
TGTTGCACGTGGCTGC | -0.2 kcal/mol
TGGGTCACGTGTACTT | 0.13 kcal/mol
GCTTACACGTGTGGCT | 0.28 kcal/mol
ATATTCACGTGTCAGT | 0.32 kcal/mol
AAAGTCACGTGATAGG | 0.28 kcal/mol
TAAGGCACGTGTGAGA | -0.04 kcal/mol
GATATCACGTGTTGCG | 0.19 kcal/mol
CTAGTCACGTGGGTCT | 0.01 kcal/mol
GGGTCCACGTGAGTGA | 0.16 kcal/mol

Sequence | relative binding free energy
GTGGCCACGTGCTGGG | -0.04 kcal/mol
AGGAGCACGTGGAGAT | 0 kcal/mol
AATAACACGTGGGTAG | -0.11 kcal/mol
ATTGACACGTGTGGAA | -0.03 kcal/mol
CGGTGCACGTGGGGTC | -0.12 kcal/mol
TTGCTCACGTGGGGTG | 0.09 kcal/mol
ATGTGCACGTGATGTT | 0.1 kcal/mol
TGGCGCACGTGAAGTA | 0.23 kcal/mol
TTCGGCACGTGTTAAA | 0.04 kcal/mol
TCATACACGTGGGTTG | -0.29 kcal/mol
ATTTACACGTGGCTAG | 0.05 kcal/mol
AATGTCACGTGGCGAT | 0 kcal/mol
AAATGCACGTGTTGAT | -0.03 kcal/mol
CGTTGCACGTGCGGTG | -0.15 kcal/mol
ACGGACACGTGTTGTT | 0.06 kcal/mol
AAGAGCACGTGGGGGG | -0.25 kcal/mol
ACATTCACGTGCTGGG | 0.22 kcal/mol
TAGAACACGTGTTGGG | -0.03 kcal/mol
TGGGGCACGTGCGGGA | -0.17 kcal/mol
TGACACACGTGGGTTG | -0.12 kcal/mol
AGGCTCACGTGTGGTC | 0.2 kcal/mol
TTTGTCACGTGAGAGG | 0.16 kcal/mol
